{
  "source": "PubChem BioAssay AID1671193",
  "about": "(National Center for Advancing Translational Sciences (NCATS), 2021)",
  "note": "Hit rate of the full screen: of about 150,000 compounds, about 180 (0.12%) were called active. This list was built around the results that the source calls inconclusive (neither active nor inactive); the mix of calls is not that of the screen. The call rests on the fitted dose curve; in most records, active means well fitted cell-killing curve with a large enough effect; inconclusive means small, poorly fitted or top-dose-only effect, or effect the other way; inactive means flat fitted curve, though single readings scatter. Potencies beside an inconclusive call are fits to weak or partial responses and may not hold up. Potency means the concentration at half of the fitted maximal effect; tags describe the fitted curve by direction and shape.",
  "data": [
    {"assay": "GF-AFC viability counterscreen for inhibitors of alpha-synuclein gene (SNCA) expression; further: nearly all actives have a fitted effect of over 30% in size;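 on activity change, negative = cytotoxicity: 0% = DMSO-treated cells and -100% = medium-only wells without cells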", "conditions": "HEK-293-SNCA-luc viability, GF-AFC fluorescence, 24 h; activity change, negative = cytotoxicity: at 57.1 µM (top of the series) unless noted", "how_it_was_run": "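HEK-293-SNCA-luc cells (1500/well) plated 24 h, then exposed 24 h to a dilution series; GF-AFC added 30 min at 37C, fluorescence 405/540 nm; normalised to medium-only and DMSO wells, Hill fit.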", "values": [
      {"smiles": "Cc1ccc(N(CC(=O)N2CCN(c3ccc(Cl)cc3)CC2)S(=O)(=O)c2c(C)noc2C)cc1", "Potency": "inconclusive: 39.8 µM [rising, partial curve, poor fit]"},
      {"smiles": "O=C(Nc1c(-c2ccccc2)nc2ccccn12)c1ccc(Br)cc1", "Potency": "inconclusive: 2.24 µM [cytotoxic, full curve, poor fit]"},
      {"smiles": "Cc1ccc(CNC(=O)c2ccc3c(c2)CN(Cc2ccncc2)CCO3)cc1", "Potency": "inconclusive: 17.8 µM [cytotoxic, partial curve, poor fit]"},
      {"smiles": "CCOc1ccc(C(=O)Nc2ccc(S(=O)(=O)N3CCCCC3c3cccnc3)cc2)cc1", "note": "(stereo unspecified)", "Potency": "inconclusive: 39.8 µM [cytotoxic, single point]"},
      {"smiles": "Cc1cnc(C2CC2)n1C1CCN(C(=O)CC(C)C)CC1", "Potency": "inconclusive: 17.8 µM [cytotoxic, partial curve, poor fit]"},
      {"smiles": "CCC1CCCCN1C(=O)CSc1nc2c([nH]c3ccccc32)c(=O)n1-c1cccc(OC)c1", "note": "(stereo unspecified)", "Potency": "inconclusive: 22.4 µM [cytotoxic, single point]"},
      {"smiles": "COC(=O)[C@H](Cc1ccc(OC)cc1)NC(=O)[C@H]1CN(S(=O)(=O)c2ccccc2)CCN1C(=O)NC1CCCCC1", "Potency": "inconclusive: 39.8 µM [cytotoxic, single point]"},
      {"smiles": "O=C1[C@@H]2C[C@@H](CN2Cc2ccc(Cl)cc2)Oc2ccccc2N1CC1CC1", "Potency": "inconclusive: 14.1 µM [cytotoxic, partial curve, poor fit]"},
      {"smiles": "O=C1c2c(-c3nc(-c4ccsc4)no3)nnn2CCN1Cc1cc(F)cc(F)c1", "activity change, negative = cytotoxicity": "inactive: 16.6% [at 12.5 µM]"},
      {"smiles": "CCNC(=O)N1CCCCCC1c1nc(C2CC2)no1", "note": "(stereo unspecified)", "Potency": "inconclusive: 17.8 µM [rising, partial curve, poor fit]"},
      {"smiles": "COc1ccc(-c2nn(-c3ccccc3)cc2CN2CCC(F)CC2)c(F)c1", "Potency": "inconclusive: 35.5 µM [cytotoxic, single point]"},
      {"smiles": "COc1ccc(-c2nc(CN3CCC(CO)CC3)c(C)o2)c2ccccc12", "Potency": "inconclusive: 31.6 µM [cytotoxic, single point]"},
      {"smiles": "Cn1cnc2c1c(=O)[nH]c(=O)n2C", "Potency": "inconclusive: 24.1 µM [cytotoxic, partial curve]"},
      {"smiles": "CC(C)C[C@@H]1N[C@H](C(=O)NC(C)C)Cc2cn(Cc3ccccn3)c3cccc1c23", "Potency": "inconclusive: 31.6 µM [cytotoxic, partial curve]"},
      {"smiles": "N#Cc1cccnc1-c1ccc(C(=O)N2CCC(NC(=O)c3ccc(Cl)nc3)CC2)cc1", "activity change, negative = cytotoxicity": "inactive: 3.14% [at 12.5 µM]"},
      {"smiles": "Cc1c(Cl)cccc1NC(=O)CCS(=O)(=O)c1ccc2c(c1)oc(=O)n2C", "Potency": "inconclusive: 22.4 µM [cytotoxic, single point]"},
      {"smiles": "O=C(NCC1Cn2cccc2C(=O)N1Cc1ccccc1)c1ccc2ncccc2c1", "note": "(stereo unspecified)", "Potency": "inconclusive: 12.6 µM [cytotoxic, partial curve, poor fit]"},
      {"smiles": "O=C(NCc1cc(F)ccc1F)C1CCN(C(=O)c2ncn3c2COC(c2ccccc2)C3)CC1", "note": "(stereo unspecified)", "activity change, negative = cytotoxicity": "inactive: 16.6%"},
      {"smiles": "O=C(Nc1ccc(-c2nnc3n2CCCC3)cc1)C1CCC1", "activity change, negative = cytotoxicity": "inactive: 0.567%"},
      {"smiles": "O=C(CC1CCCN(c2cn[nH]c(=O)c2)C1)Nc1ccc(F)cc1F", "note": "(stereo unspecified)", "Potency": "inconclusive: 7.08 µM [cytotoxic, single point]"},
      {"smiles": "COc1ccc(OCc2nc(C3CN(C(=O)c4cccn4C)C3)no2)cc1", "activity change, negative = cytotoxicity": "inactive: 2.89%"},
      {"smiles": "COc1ccc(Cn2c(C(=O)O)c(CNCCc3ccco3)c3ccc(C)cc32)cc1", "Potency": "inconclusive: 12.6 µM [cytotoxic, partial curve, poor fit]"},
      {"smiles": "N=c1c(C(=O)NCC2CCCO2)cc2c(=O)n3ccccc3nc2n1CCCO", "note": "(stereo unspecified)", "Potency": "inconclusive: 15.8 µM [rising, partial curve, poor fit]"},
      {"smiles": "COc1ccccc1N1CCCc2ncc(C(=O)N3CCCC[C@@H]3c3ccccc3)cc21", "Potency": "inconclusive: 56.2 µM [cytotoxic, single point]"},
      {"smiles": "N#Cc1cccc(CN2Cc3[nH]cnc3C[C@H]2c2nc(-c3cccc([N+](=O)[O-])c3)no2)c1", "activity change, negative = cytotoxicity": "inactive: -12.9% [at 87.6 µM]"},
      {"smiles": "COc1ccc(CC(=O)N2CCC[C@H]2c2nc(-c3ccccc3Cl)no2)cc1", "Potency": "inconclusive: 44.7 µM [cytotoxic, single point]"},
      {"smiles": "CC(C)C[C@@H](C(=O)N[C@H](C(=O)OC1CCCC1)c1ccccc1)[C@H](O)C(=O)NO", "Potency": "inconclusive: 0.482 µM [cytotoxic, full curve]"},
      {"smiles": "C[C@H]1CCCN1C(=O)c1nnc(COc2ccccc2)n1-c1ccccc1", "activity change, negative = cytotoxicity": "inactive: -3.79% [at 87.6 µM]"},
      {"smiles": "Cn1cccc1C(=O)N1CCCCCCNC(=O)CC1", "Potency": "inconclusive: 3.16 µM [cytotoxic, single point]"},
      {"smiles": "Cc1ncoc1C(=O)N1CCCC(c2nc(-c3cccnc3)no2)CCNC(=O)CC1", "note": "(stereo unspecified)", "Potency": "inconclusive: 2.24 µM [rising, full curve, poor fit]"},
      {"smiles": "COC(=O)CC1OC(C)C2=C(O)c3c(O)cccc3C(=O)C23OC13", "note": "(stereo unspecified)", "Potency": "inconclusive: 7.36 µM [cytotoxic, partial curve, poor fit]"},
      {"smiles": "Cc1cc(C)cc(C(=O)NC2CCN(c3cc(-c4ccc(F)cc4)[nH]n3)C2)c1", "note": "(stereo unspecified)", "Potency": "inconclusive: 39.8 µM [cytotoxic, single point]"},
      {"smiles": "Cc1cccc(NC(=O)Nc2ccc(C)n(CC(=O)NCc3ccccc3Cl)c2=O)c1", "Potency": "inconclusive: 3.55 µM [rising, full curve, poor fit]"},
      {"smiles": "COc1ccc(NC(=O)CCS(=O)(=O)c2nc(-c3cccs3)cc(C(F)(F)F)n2)cc1OC", "Potency": "inconclusive: 25.1 µM [cytotoxic, single point]"},
      {"smiles": "COc1cc(CNCCOc2cccnc2)ccc1OCC(O)CN1CCSCC1", "note": "(stereo unspecified)", "Potency": "inconclusive: 25.1 µM [cytotoxic, single point]"},
      {"smiles": "Cc1[nH]c(-c2ccccc2)nc1C(=O)N[C@H](c1cnn(C)c1)C1CC(O)C1", "note": "(stereo partly specified)", "activity change, negative = cytotoxicity": "inactive: 0.552%"},
      {"smiles": "CC(C)C1CN(c2cncc(C(=O)N3CCCC3)n2)CCC(=O)N1CC1CC1", "note": "(stereo unspecified)", "activity change, negative = cytotoxicity": "inactive: 7.83%"},
      {"smiles": "NC(=O)c1cccc(-c2cc(Nc3ccc(OC(F)(F)F)cc3)ncn2)c1", "Potency": "inactive"},
      {"smiles": "Cc1ccc(CCNC(=O)c2nn(C)c3c2CSc2ccccc2-3)cc1", "activity change, negative = cytotoxicity": "inactive: 8.09%"},
      {"smiles": "COc1cccc(NC(=O)c2sc3nc(C)c(C(=O)Nc4ccc(C)cc4C)c(-c4ccccc4Cl)c3c2N)c1", "Potency": "inconclusive: 28.2 µM [rising, partial curve]"},
      {"smiles": "O=C(CC1CCCCN(Cc2ccccc2)C1=O)N1CCN(c2ccc(F)cc2)CC1", "note": "(stereo unspecified)", "activity change, negative = cytotoxicity": "inactive: -0.835%"},
      {"smiles": "O=C(NCCc1cccs1)c1ccc(Cn2c(SCc3ccc(F)cc3)nc3cccnc32)cc1", "Potency": "inconclusive: 22.4 µM [cytotoxic, partial curve, poor fit]"},
      {"smiles": "Cc1cccc(C(=O)N2CC(N(Cc3ccccn3)S(C)(=O)=O)C2)c1", "activity change, negative = cytotoxicity": "inactive: 1.09%"},
      {"smiles": "CCc1ccc(-n2c(=O)c3c4c(sc3n(CC(=O)NCCCOC)c2=O)CCCC4)cc1", "Potency": "inconclusive: 7.08 µM [cytotoxic, single point]"},
      {"smiles": "COc1cccc(C2CC(=O)Nc3cc4c(cc32)OCCO4)c1OC", "note": "(stereo unspecified)", "Potency": "inconclusive: 20 µM [cytotoxic, partial curve, poor fit]"},
      {"smiles": "CC1=C[C@@H](CN(C)CCO)[C@H](C(C)C)C[C@H]1Cc1nnc(-c2ccc(N(C)C)cc2)o1", "Potency": "inconclusive: 35.5 µM [cytotoxic, partial curve, poor fit]"},
      {"smiles": "COc1ccc(-c2cc(C(=O)Oc3ccccc3)c3cc(C)ccc3n2)cc1", "Potency": "inconclusive: 14.1 µM [cytotoxic, partial curve]"},
      {"smiles": "Cn1cc(-c2nc3cnc(N4CCNCC4)nc3n(CCc3ccccc3)c2=O)c2ccccc21", "Potency": "inconclusive: 31.6 µM [rising, single point]"},
      {"smiles": "COc1ccccc1-c1ccc2c(C(=O)N3CCCC3)nn(C)c2n1", "Potency": "inconclusive: 35.5 µM [rising, partial curve, poor fit]"},
      {"smiles": "CCOc1ccc(C(=O)N2CCC(Cc3nc(-c4cnccn4)no3)CC2)cc1", "activity change, negative = cytotoxicity": "inactive: 5.14%"},
      {"smiles": "COc1ccc(C(=O)N/C(=C\\c2cn(S(=O)(=O)N(C)C)c3ccccc23)C(=O)NCCCn2ccnc2)cc1", "Potency": "inconclusive: 3.16 µM [cytotoxic, full curve]"},
      {"smiles": "COC[C@@H]1CN(c2cnccn2)C[C@H]1C(=O)N1CCc2ccccc2C1", "Potency": "inconclusive: 8.91 µM [cytotoxic, partial curve, poor fit]"},
      {"smiles": "CC(=O)N1CCC2(CCCN(Cc3ccc(C#N)cc3)C2)CC1", "Potency": "inconclusive: 3.98 µM [cytotoxic, single point]"},
      {"smiles": "O=C(Nc1ccc(F)cc1)c1ccc2cc[nH]c2n1", "Potency": "inconclusive: 5.01 µM [cytotoxic, partial curve, poor fit]"},
      {"smiles": "CN(CCCn1cc(-c2cncnc2)nn1)c1ccccc1", "activity change, negative = cytotoxicity": "inactive: -0.0119%"},
      {"smiles": "O=C(NC1CCCN(Cc2ccc(-c3cncnc3)cc2)C1)c1cccc(Cl)c1", "note": "(stereo unspecified)", "activity change, negative = cytotoxicity": "inactive: -12.1% [at 12.5 µM]"},
      {"smiles": "COc1ccc(NC(=O)CN2C(=O)CC(c3ccco3)Sc3ccccc32)cc1OC", "note": "(stereo unspecified)", "Potency": "inconclusive: 2.24 µM [cytotoxic, full curve]"},
      {"smiles": "COc1ccccc1-c1cccc(-c2c(O)c3cc(C#N)c(Cl)cc3[nH]c2=O)c1", "Potency": "inconclusive: 17.5 µM [cytotoxic, full curve, poor fit]"},
      {"smiles": "O=C(Nc1ccc(Cl)cc1)C1CCN(S(=O)(=O)c2ccc(Br)s2)CC1", "Potency": "inconclusive: 22.4 µM [cytotoxic, partial curve, poor fit]"},
      {"smiles": "CC(CNC(=O)CN1C(=O)COc2ccc(S(=O)(=O)N3CCCCC3)cc21)c1ccccc1", "note": "(stereo unspecified)", "Potency": "inconclusive: 39.8 µM [cytotoxic, single point]"},
      {"smiles": "Cc1ccc(-n2ncc(C(=O)NCCCN3CCc4ccccc4C3)c2C2CCN(C(=O)OC(C)(C)C)CC2)cc1C", "Potency": "inconclusive: 39.8 µM [cytotoxic, single point]"}
    ]}
  ]
}
